These are yes or no findings as the source states them, for the method shown. Binding seen in cells or lysates may run through a third protein.
B1: endogenous human Vps36 (protein, UniProt Q86VN1 1-386)
chain: MDRFVWTSGLLEINETLVIQQRGVRIYDGEEKIKFDAGTLLLSTHRLIWRDQKNHECCMAILLSQIVFIEEQAAGIGKSAKIVVHLHPAPPNKEPGPFQSSKNSYIKLSFKEHGQIEFYRRLSEEMTQRRWENMPVSQSLQTNRGPQPGRIRAVGIVGIERKLEEKRKETDKNISEAFEDLSKLMIKAKEMVELSKSIANKIKDKQGDITEDETIRFKSYLLSMGIANPVTRETYGSGTQYHMQLAKQLAGILQVPLEERGGIMSLTEVYCLVNRARGMELLSPEDLVNACKMLEALKLPLRLRVFDSGVMVIELQSHKEEEMVASALETVSEKGSLTSEEFAKLVGMSVLLAKERLLLAEKMGHLCRDDSVEGLRFYPNLFMTQS
B2: overexpressed human Vps36 (protein, UniProt Q86VN1 1-386)
chain: B1 chain

Molecular target: HA-tagged Nipah virus C protein (NiV-C-HA) (Nipah virus) (UniProt Q997F1)
Test: co-IP; endogenous or overexpressed hVps36 with NiV-C or hVps28; no figure shown

Binder | binding
B1 | no binding
B2 | no binding

— article PMC4874542
